Measured values from the supplement of paper PMC9135407.
Values joined by “and” are separate entries in the source; they are usually repeats but may differ in a detail not shown here. Equal entries are not always repeated. Structures can show the parent of a compound that is named as a salt. The whole screen tested about 5,800 compounds, of which about 620 (11%) showed activity.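 The calls were made as follows: active = score above a cut-off or among the top three wells of a plate; in these data no inactive exceeds 0.85.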 Only a part is listed here, and it is no random draw.

Test system: primary human hepatic stellate cells (donor 1)
Assay: scaled lipid accumulation score (0 = DMSO-like, 1 = nortriptyline-like); higher = stronger HSC inactivation (lipid re-accumulation), active = hit call of the paper
Details: 48 h
[1] = library stock concentration: 3.33 mM
[2] = library stock concentration: 10 mM
[3] = library stock concentration: 80 uM
[4] = library stock concentration: 400 uM
[5] = library stock concentration: 2 mM

SMILES: CC(NC(=O)C(O)c1cc(F)cc(F)c1)C(=O)NC1C(=O)N(C)c2ccccc2-c2ccccc21 (stereo not drawn)
- scaled lipid accumulation score [1]: inactive: 0.011
- scaled lipid accumulation score [2]: inactive: 0.133

SMILES: COc1cc2c(cc1-c1c(C)noc1C)ncc1[nH]c(=O)n([C@H](C)c3ccccn3)c12
- scaled lipid accumulation score [3]: inactive: ≤ 0
- scaled lipid accumulation score [4]: inactive: ≤ 0
- scaled lipid accumulation score [5]: inactive: ≤ 0
- scaled lipid accumulation score [1]: inactive: ≤ 0
- scaled lipid accumulation score [2]: inactive: 0.004 and inactive: ≤ 0

SMILES: CN(C)c1nc(N(C)C)nc(N(C)C)n1 [Altretamine]
- scaled lipid accumulation score: inactive: ≤ 0
- scaled lipid accumulation score [1]: inactive: ≤ 0
- scaled lipid accumulation score (library stock concentration: 9.5 mM): inactive: ≤ 0
- scaled lipid accumulation score [2]: inactive: ≤ 0 and inactive: 0.288 and inactive: ≤ -0.027

SMILES: COc1cc(N2CCC(C(N)=O)CC2)ccc1Nc1nc(N)c(Cl)c(Nc2ccccc2S(=O)(=O)C(C)C)n1
- scaled lipid accumulation score [3]: inactive: ≤ 0
- scaled lipid accumulation score [4]: inactive: ≤ 0
- scaled lipid accumulation score [5]: inactive: 0.025
- scaled lipid accumulation score [2]: inactive: 0.537

SMILES: COc1nccc(-c2c(-c3ccc(F)cc3)ncn2C2CCNCC2)n1
- scaled lipid accumulation score [4]: inactive: ≤ -0.005
- scaled lipid accumulation score [5]: inactive: 0.173
- scaled lipid accumulation score [2]: inactive: ≤ -0.005

SMILES: COc1cc2c(Oc3ccc4[nH]c(C)cc4c3F)ncnc2cc1OCCCN1CCCC1 [Cediranib (AZD2171)]
- scaled lipid accumulation score [2]: inactive: 0.678

SMILES: COc1cc2c(Oc3ccc4[nH]c(C)cc4c3F)ncnc2cc1OCCCN1CCCC1 [Cediranib]
- scaled lipid accumulation score [3]: inactive: 0.077
- scaled lipid accumulation score [4]: inactive: 0.464
- scaled lipid accumulation score [2]: inactive: 0.693

SMILES: CNc1cc(OC)c(C(=O)NC2CCN(Cc3ccccc3)C2C)cc1Cl (stereo not drawn) [Nemonapride]
- scaled lipid accumulation score [2]: inactive: 0.728

SMILES: O=C(O)c1cc(-c2ccccc2)nc2ccccc12
- scaled lipid accumulation score [2]: inactive: ≤ 0

SMILES: O=C(O)c1cc(-c2ccccc2)nc2ccccc12 [Cinchophen]
- scaled lipid accumulation score [1]: inactive: ≤ 0
- scaled lipid accumulation score [2]: inactive: 0.163

SMILES: CC(=O)O[C@]1(C(C)=O)CC[C@H]2[C@@H]3C[C@H](C)C4=CC(=O)CC[C@]4(C)[C@H]3CC[C@@]21C [Medroxyprogesterone acetate]
- scaled lipid accumulation score [1]: inactive: ≤ 0
- scaled lipid accumulation score (library stock concentration: 5.2 mM): inactive: ≤ -0.001
- scaled lipid accumulation score [2]: inactive: ≤ 0

SMILES: CC(=O)O[C@]1(C(C)=O)CC[C@H]2[C@@H]3C[C@H](C)C4=CC(=O)CC[C@]4(C)[C@H]3CC[C@@]21C [Medroxyprogesterone 17-acetate]
- scaled lipid accumulation score [2]: inactive: ≤ 0
- scaled lipid accumulation score (library stock concentration: 16.4 mM): inactive: ≤ 0

SMILES: CC(C)(C)c1nc2c3cc[nH]c(=O)c3c3cc(F)ccc3c2[nH]1 [Merck -5 (0.4 mM)]
- scaled lipid accumulation score [4]: inactive: ≤ -0.005

SMILES: CC(C)(C)c1nc2c3cc[nH]c(=O)c3c3cc(F)ccc3c2[nH]1 [Merck -5 (10 mM)]
- scaled lipid accumulation score [2]: inactive: 0.114

SMILES: CC(C)(C)c1nc2c3cc[nH]c(=O)c3c3cc(F)ccc3c2[nH]1 [Merck -5 (2 mM)]
- scaled lipid accumulation score [5]: inactive: ≤ -0.005

SMILES: CC(C)(C)c1nc2c3cc[nH]c(=O)c3c3cc(F)ccc3c2[nH]1 [JAK Inhibitor I]
- scaled lipid accumulation score [1]: inactive: ≤ 0

SMILES: CS(=O)(=O)CCNCc1ccc(-c2ccc3ncnc(Nc4ccc(OCc5cccc(F)c5)c(Cl)c4)c3c2)o1.Cc1ccc(S(=O)(=O)O)cc1.Cc1ccc(S(=O)(=O)O)cc1
- scaled lipid accumulation score [2]: active: 1.23

SMILES: CC(C)NCC(O)c1ccc2ccccc2c1 (stereo not drawn) [Pronethalol HCl]
- scaled lipid accumulation score (library stock concentration: 8.7 mM): inactive: 0.224

SMILES: CC(C)NCC(O)c1ccc2ccccc2c1 (stereo not drawn) [Pronethalol hydrochloride]
- scaled lipid accumulation score: inactive: 0.369
- scaled lipid accumulation score [2]: inactive: 0.221

SMILES: CC(C)NCC(O)c1ccc2ccccc2c1 (stereo not drawn) [Pronetalol hydrochloride]
- scaled lipid accumulation score [2]: inactive: 0.107

SMILES: O.O.O.O.O.O.O.O.O.O.O.O.O.O.O.O.O=S(=O)([O][Al])OC[C@H]1O[C@@](COS(=O)(=O)[O][Al])(O[C@H]2O[C@H](COS(=O)(=O)[O][Al])[C@@H](OS(=O)(=O)[O][Al])[C@H](OS(=O)(=O)[O][Al])[C@H]2OS(=O)(=O)[O][Al])[C@@H](OS(=O)(=O)[O][Al])[C@@H]1OS(=O)(=O)[O][Al] [Sucralfate sodium (10% w/v in dmso)]
- scaled lipid accumulation score (library stock concentration: 900 uM): inactive: ≤ 0

SMILES: CCCc1c(OCC(O)COc2ccc3c(=O)cc(C(=O)O)oc3c2CCC)ccc(C(C)=O)c1O (stereo not drawn)
- scaled lipid accumulation score [2]: inactive: ≤ -0.001

SMILES: Cc1ccc(NC(=O)c2ccc(CN3CCN(C)CC3)cc2)cc1Nc1nc(-c2cccnc2)cs1 [Masitinib (AB1010, Masivet) (2 mM)]
- scaled lipid accumulation score [5]: active: 1.37

SMILES: Cc1ccc([N+](=O)[O-])cc1S(=O)(=O)N(C)C
- scaled lipid accumulation score [2]: inactive: ≤ 0 and inactive: ≤ -0.001

SMILES: Cc1c(O)c(=O)ccn1C
- scaled lipid accumulation score [2]: inactive: ≤ 0

SMILES: CC(C)C[C@H](NP(=O)(O)O[C@H]1O[C@H](C)[C@@H](O)[C@H](O)[C@@H]1O)C(=O)N[C@@H](Cc1c[nH]c2ccccc12)C(=O)O [Phosphoramidon disodium]
- scaled lipid accumulation score [2]: inactive: ≤ 0

SMILES: O=S(=O)(O)c1cc(O)ccc1O [Ethamsylate]
- scaled lipid accumulation score: inactive: ≤ 0
- scaled lipid accumulation score [1]: inactive: ≤ 0
- scaled lipid accumulation score [2]: inactive: ≤ -0.001

SMILES: c1ccc([C@H]2CN3CCSC3=N2)cc1 [Levamisole hydrochloride]
- scaled lipid accumulation score: inactive: 0.068
- scaled lipid accumulation score (library stock concentration: 8.3 mM): inactive: ≤ 0
- scaled lipid accumulation score [2]: inactive: 0.052

SMILES: CCCCC/C=C\C=C\[C@@H](O)CCCCCCCC(=O)O
- scaled lipid accumulation score (library stock concentration: 100 uM): inactive: ≤ -0.021
